Results: the supplement of paper PMC3334620
Over roughly 33,000 sequences, “E-score (-0.5 to 0.5)” has its median near -0.035; the highest 2% begin near 0.34. This is one part of the list.

The sequences below were run against T1, Mot3 (UniProt P54785) (assay: PBM E-score (8-mer binding enrichment) (E-score (-0.5 to 0.5)); higher = stronger / more preferred TF binding; most listed sequences are background and not binding sites). Settings: protein concentration: 200 nM; construct: GST-full length.
T1 sequence: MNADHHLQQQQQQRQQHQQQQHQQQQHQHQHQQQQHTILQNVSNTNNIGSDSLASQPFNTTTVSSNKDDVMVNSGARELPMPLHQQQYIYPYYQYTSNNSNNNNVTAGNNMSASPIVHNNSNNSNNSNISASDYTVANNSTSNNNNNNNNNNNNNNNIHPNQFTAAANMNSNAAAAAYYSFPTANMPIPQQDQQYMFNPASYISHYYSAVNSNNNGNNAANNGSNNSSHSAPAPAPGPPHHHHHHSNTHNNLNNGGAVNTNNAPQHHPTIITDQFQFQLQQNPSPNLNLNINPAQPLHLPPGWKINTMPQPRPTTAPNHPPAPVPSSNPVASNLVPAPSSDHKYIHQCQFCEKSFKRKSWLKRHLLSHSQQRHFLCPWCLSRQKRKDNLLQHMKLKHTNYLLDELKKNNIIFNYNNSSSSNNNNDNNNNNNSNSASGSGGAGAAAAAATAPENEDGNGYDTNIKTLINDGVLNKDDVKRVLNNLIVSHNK
In short: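 Bound GST-tagged yeast transcription factors, applied at about 100-200 nM to double-stranded universal all-10-mer Agilent arrays, were detected with fluorescent anti-GST. Scans were normalised with masliner. A modified Wilcoxon-Mann-Whitney statistic, the E-score, was assigned to each ungapped eight-base word pooled with its reverse complement by the Universal PBM Analysis Suite.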

Sequence	PBM E-score
CTTATCTC	-0.208
CAGACCTG	-0.25
ACTCAGAA	0.0722
AGGTTAAT	0.0834
AAAGCAGT	-0.00102
GAGACAAC	-0.063
AACGGTCC	-0.201
AAACAAGC	0.0864
ACCTGCCC	-0.0694
AATGCCAA	-0.0336
CGCTCACC	-0.292
AGCACCTG	0.0863
GCTATACC	-0.0382
GACATCGA	-0.0937
ATCGAGGA	-0.102
CGCACCGC	-0.118
ATGTATTA	0.33
AACTCTTA	0.12
GGCCCGAC	-0.19
AAGCTACC	-0.124
TACTCGCA	-0.0684
ACACTCAA	0.186
GTTACGGA	-0.0574
AATAAATT	0.0734
TGCTATAA	-0.0679

Sequence	PBM E-score
AAGGGGAC	-0.173
ACATGCGC	0.251
ATCTACAA	0.205
GTAATCTA	0.265
CACCATGG	-0.0498
ACGCGCTC	0.115
AGCCTAAA	0.178
ATCAGGTA	0.256
CCCTGTCG	0.0848
CACATGCA	0.153
ATAGTGAG	-0.0627
AAGTGGAC	-0.28
ATAGAGAC	-0.144
ATACAGAC	0.0425
CGAGTAGC	-0.131
GTAAGTAA	0.169
GAGATAAC	0.115
GTAGATCA	0.122
ATCAGGAG	0.00236
AGCGCCAC	-0.3
ACTTAACC	0.118
GAGCTCCC	-0.149
TGAAGTAA	-0.00559
AAAAGATC	-0.0143
TACCTGGA	0.178

Sequence	PBM E-score
CGGCGACC	-0.34
AGCTTCAC	-0.0585
CTTATTCC	-0.194
CGTTCGTC	-0.0385
ATAGTGGA	0.171
CATCGTGA	-0.0523
CTTTAGCC	-0.0668
GGCCCCTA	-0.12
CTGTGAAC	0.0791
CCCTTATC	0.00197
TAGGTCGA	-0.073
ATCAATAC	0.224
GAGATGCC	-0.0239
GACAACGA	0.00028
ACTCACTA	0.0736
ATCGGCAG	-0.16
ACAAACGG	0.0362
AGAGCTCC	-0.224
GTAGGCTA	0.226
ATACAACA	0.216
CGTGAAGC	-0.266
TGAGGAAA	0.0921
ACCAACGT	0.122
AAGAGTAG	0.0291
ACATTCGC	0.0874

Sequence	PBM E-score
AAGCGCGT	0.146
AAGTGGGT	-0.0924
AGTTTCAG	-0.0348
ACCGGTCT	-0.283
ATGAAAAA	0.0509
AAGGACGC	-0.0574
CCGGACCC	-0.0667
CAGTTAAG	-0.0297
ACGGCTAC	-0.165
GAAGCCAA	-0.3
CACCGCTG	-0.138
AGAACTAC	0.0299
ATGGATCG	-0.0306
GCTGCTCA	-0.148
CACAAGAG	-0.0143
GAATGCAC	0.0446
ACCCGCTC	-0.29
ATTAATGC	-0.0961
CGCAAAGA	-0.00228
GGCACTCA	0.15
ATAGGGAA	0.00264
CTCACTCA	0.00285
TGCGCGCA	0.229
ATCCTTCC	-0.0671
CGACAAGA	0.052

Sequence	PBM E-score
ATGGCTCG	-0.182
CAGCATGC	-0.0613
CCCGCCTC	-0.121
CCCGGAAG	-0.0782
AATGGCAA	-0.0233
AGACGCTA	-0.174
ACCACCGC	-0.171
CAATTACA	0.378
CATAGAGA	0.0452
CCGGACAG	-0.0786
CCTAGCAC	0.0273
AATGACAC	0.25
ATATTAGC	-0.0465
ATAGCGGC	-0.187
AGGTCACG	-0.0889
GGTAGGAC	-0.172
CCATCTAC	-0.151
CCAGATGG	-0.23
TAAGATTA	0.113
CTCGACGC	0.0942
CGGAAATC	-0.109
CTGTACAC	0.265
ACGTTCAC	0.0135
ACTATAGC	-0.1
ATTACCCC	-0.0122

Sequence	PBM E-score
CCGCGACA	-0.104
GCAATCAA	0.0823
CTAAATAA	0.195
GGTGAGGA	-0.148
TACAATGA	0.136
AAGCACGT	0.109
CGGTCATA	-0.283
ATTTGGAC	0.0265
GCTACTAC	0.0121
TAGCAAGA	0.152
CAGAAGAA	-0.189
AACTCGTG	0.143
AAACTGTT	0.0843
AACATTCT	0.214
CTGGACAC	-0.046
GTCCTGAA	-0.211
AATCCAGA	-0.119
ATGCGGCG	-0.109
CTATTCCA	0.0473
AGCAACTG	-0.164
TCGGACGA	0.0576
ACTAAAAT	-0.0105
GCGGGGTA	-0.194
AGGATCAT	0.0704
AATCGCCC	-0.408

Sequence	PBM E-score
AGCCCGGG	-0.0855
CTTGACGA	-0.0394
GATACCAA	-0.0601
ACGTGGTA	0.106
CAAAAAAG	0.151
AAAGTATG	0.136
CATCGCGC	-0.206
CTCGCAAC	-0.0416
GCCTACGC	0.293
AATAATAG	0.0211
CAGTATAA	0.00928
AAACAGTC	-0.076
GCCTAGAC	0.0287
GATACTCC	-0.218
AGCGAATC	-0.118
ACATTGCC	0.236
CGGGAGAG	-0.288
CGAGTCGA	-0.108
TCGTTTCA	-0.124
CTTGCTAC	0.155
ACTGGATA	-0.0369
ATGTAGGG	0.00541
AACCCCGT	-0.258
ACACTTAA	0.193
TCTGCTAA	0.0266

Sequence	PBM E-score
CCCACGCA	-0.0521
ATTAATCC	-0.14
AGTTAATG	0.0724
ACGTGGTC	0.0227
ACTGATAA	-0.0129
CTGGGCAC	0.0731
CATACTAA	0.0644
CTATTCTC	-0.0386
ACTCCTCT	-0.182
TAGAGATA	0.036
CCGACGTC	-0.235
GACAGCAC	-0.0325
GACAGAAA	0.0469
AGCGGGTC	-0.196
CCATGGAG	-0.244
CAAAGAAG	0.135
AAGAGAAC	0.0546
ATATGGGA	-0.14
CCTAGCCA	-0.0256
AACTCGCA	0.00841
GCACATTA	0.214
AGGAGGGG	-0.156
AAATTGAA	0.112
CTCACGAA	0.048
ATCTGTCC	-0.268

Sequence	PBM E-score
CGGCTTAC	0.0799
AAGGAAAT	0.426
CGAGAGTC	-0.378
AGTTGTAC	-0.0112
AAGAACAG	0.218
CGCAGCAG	0.0067
GTGCCGAA	-0.0995
AGGCAGGA	0.152
AGTGTGTC	0.0504
GGGCTATA	-0.197
CGCAAGGA	-0.0211
ACACCCGT	0.053
GTCCGAAA	-0.142
AAGGTGGT	-0.0322
ACGACAAT	0.184
ACCACTAA	0.162
CCAGTCAG	-0.242
GCATGATA	0.0933
ATTAGAGA	-0.174
CGAACAAG	0.0494
GCAGACGA	-0.212
CCGTTAGA	-0.0412
CAACGTAG	0.0756
ATACGACG	-0.00564
TGTGCACA	-0.00884

Sequence	PBM E-score
GCTGCGAC	-0.195
GCAAGTTA	0.133
CCCGTTGC	0.0207
CGCTCTTA	-0.0667
CTGACCCA	-0.213
GCGGCACC	-0.159
CATAGTGC	0.117
GGTTTGAA	0.0629
CGCGGAGC	-0.236
ATATTCCG	-0.134
AAGTTAGC	-0.112
CTTAAGGA	0.0409
ATGCTCTC	-0.141
ACGTGGCG	0.0823
GTTCGAAC	-0.0852
ATCGAAAG	-0.0284
GGTGCACA	-0.0839
AAACATTT	0.228
AAGACAGA	0.149
AGGTGCGG	-0.121
TATATAGA	0.133
CAACAGGA	0.172
AATAACAG	0.254
AGGAACCC	0.444
ACCGCACT	-0.179

Sequence	PBM E-score
CCTATTTA	0.21
ACCTCGCT	-0.145
AGTCGAAG	-0.0551
ATACCCGC	0.101
CTACGGGA	-0.181
CACATATA	0.267
TGAAGTCA	0.0305
CATTGATA	-0.0188
ACAGACGT	0.119
GCCACCCC	-0.216
CATGAACA	0.129
AATTCTCC	-0.136
GCCTATTA	0.334
CACGACAG	0.0178
CCCTGGAC	-0.23
ACCGGAAT	-0.179
CAAATGAG	0.0295
GAACGGAA	-0.18
GATAGAGA	-0.0576
CGTTAGAC	-0.123
ATTCGCAC	-0.134
AGGCCGCG	-0.0446
CAAACTCG	-0.221
AGTATGAG	-0.0106
AATGGTTG	0.0245

Sequence	PBM E-score
CGGATGCC	0.174
AATATTGG	-0.0788
AAAACGAA	0.181
AGCCCGTC	-0.229
CGTGACCA	-0.223
GCCTAGCC	-0.0436
AAGAGGCG	-0.057
AGAGCCAC	-0.292
AAGCACTT	-0.0943
CTGTAGGA	0.134
AGCATTGA	-0.145
AGGGAGCA	-0.371
TTCGTAAA	0.125
ACACAACT	0.248
AGCTCATA	-0.0474
CGGTAACA	0.21
CCTAGATA	-0.143
AATAGTCG	-0.235
GCGAGCCC	-0.201
GCCCGTGA	-0.15
CAATAGTC	-0.206
AAAACGTT	0.032
ACCGGATA	0.0428
AAGGTATT	0.16
CCCATGAC	-0.167

Sequence	PBM E-score
GTGCGGGA	-0.252
ACGCGCCT	0.299
CAAATAAA	-0.00982
AAGCGGTG	-0.0951
CCTCAAGC	-0.229
GGCAGGCA	0.481
GTGGACTA	-0.0845
GTGATCAA	-0.0663
AGTGCGCG	-0.188
CCGCACGA	-0.183
ATAGCACG	-0.00445
ATGTTACC	0.237
CTAATGAG	-0.0831
AAGTCGAT	-0.224
CAGAAAAG	-0.0566
AAATCTCC	-0.264
CTGAATAC	0.105
TCATGCAA	0.0365
AGCGATAC	-0.117
CAGATAGG	0.069
CCCCCTAG	-0.371
AACTGTTC	0.00203
ACGCGCAG	-0.0527
GAAATCGC	-0.241
CCACACTA	-0.135

Sequence	PBM E-score
CCTATGTC	0.172
AGCCCCAA	-0.215
GATACCCC	-0.294
ACTCATCT	0.028
CTGGAGAA	-0.16
CAATTCGG	0.0113
AATCCAGC	-0.198
GTCCGAGA	-0.0515
AAGGGGAT	0.021
ATATTCGC	0.0219
CAAAGTTG	-0.0227
AAGAACAT	0.229
CACATCGA	0.0533
AACTCACT	-0.0304
CATTGGCA	0.0852
AGTCTTGG	-0.0823
GGCCAAAC	-0.214
CGGCTAGC	-0.229
TCCCCGCA	-0.125
